# In all, about 13,000 compounds were measured (“IFI”: median about 4, highest 2% from about 17 on). The list shows a part of the results.
# Assay: GSK_TCMDC: Inhibition Frequency Index (IFI). The number of non-kinase HTS assays where a compound showed > 50 % inhibition, expressed as a percentage of the number of such assays in which the compound was tested (-0 is zero)
# Assay type: functional
row,Compound,IFI [%]
1,COc1cc(OCCCN(C)Cc2ccc(OC)c(OC)c2)ccc1NC(=O)c1cccc2c(O)c3cccc(F)c3nc12,5.26
2,Cc1cccc2nc(-c3ccc(-c4cccc(CN5CCN(CCN6CCOCC6)CC5)c4)s3)[nH]c12,4.23
3,O=C(C1CCCC1)N1CCOC(CCN2CCC(c3ccccc3)CC2)(c2ccc(Cl)c(Cl)c2)C1 (stereo not given),9.93
4,O=C(Nc1cccc(CN2CCCN(Cc3ccccc3)CC2)c1)c1ccc(Cl)c(Cl)c1,3.97
5,OCC1CCN(Cc2ccc(-c3ccc(-c4nc5cc(C(F)(F)F)ccc5[nH]4)cc3)cc2)CC1,1.92
6,CCN1CCC(N(Cc2ccc(-c3ccc(C(F)(F)F)cc3)cc2)C(=O)Cn2c(CCc3cccc(F)c3F)cc(=O)c3ccccc32)CC1,11.5
7,Cc1nc(-c2cccc(Nc3nccc(NCC(O)c4ccccc4C(F)(F)F)n3)c2)cs1 (stereo not given),22.8
8,COc1cc(NC(=O)Nc2cc(C)nc3ccccc23)cc(OC)c1,1.4
9,Cc1noc(C)c1S(=O)(=O)N(C)Cc1ccc(-c2ccc(Cl)cc2)o1,3.23
10,Fc1c(CNCC2CCN(CC3CCCCC3)CC2)cccc1C(F)(F)F,3.65
11,Cc1cc(N[C@@H](CC(C)C)C(=O)NC2CCCC2)nc(NCCc2ccc(F)cc2)n1,6.82
12,COc1ccc2nccc(N3CCC(NCc4ccc5c(n4)NC(=O)CS5)CC3)c2n1,0.72
13,O=C(CCc1nc2c(cnn2-c2ccccc2)c(=O)[nH]1)NC1CCSc2ccccc21 (stereo not given),0
14,CN(C)C(CNC(=O)c1cc(-c2ccncc2)c(-c2ccc(NC(=O)Nc3ccccc3)cc2)o1)c1ccccc1 (stereo not given),6.85
15,O=c1c(Br)c(C(F)(F)F)[nH]c2ccc(Oc3ccccc3)cc12,7.89
16,Cc1nc(-c2nc(NCCc3cnccn3)ncc2-c2ccsc2)sc1C,2.22
17,CCOc1ccc(C=CC(=O)Nc2ccc3nc(N4CCOCC4)cc(C)c3c2)cc1OC,4.04
18,CCCCCC(C)C(C)c1cc(O)c2c(c1)OC(C)(C)CC2(O)c1ccccn1 (stereo not given),0.75
19,Oc1cccc(/C=N/Nc2ccnc3cc(Cl)ccc23)c1,0.74
20,COc1ccc(OC)c(-c2cccc(-c3cccc(NC(=O)c4ccc([N+](=O)[O-])o4)c3)n2)c1,11.9

row,Compound,IFI [%]
1,COc1cc(Nc2ncc3c(C)nc(-c4cc5ccccc5[nH]4)n3n2)cc(OC)c1OC,3.57
2,Clc1ccc(-n2cnc3c(Nc4ccc(Oc5ccccc5)cc4)ncnc32)cc1Cl,1.52
3,CCCc1ccccc1Nc1nc(C)cc(N(CC)CCCN2CCCCC2)n1,7.59
4,CN(CC(=O)Nc1cc(C(F)(F)F)ccc1-n1cncn1)Cc1nc2ccccc2s1,-0
5,O=C(Cc1c[nH]cn1)Nc1ccc(-c2cccc(-c3nc4cc(C(F)(F)F)ccc4[nH]3)c2)cc1,3.74
6,NC1=NC2(CCCCC2)N(OCCCCCCc2ccccc2)C(N)=N1,23.9
7,O=C(Nc1cccc(-c2nc3ccccc3[nH]2)c1)c1cccc(NC(=O)c2ccco2)c1,4.29
8,O=C(O)c1ccc(-c2c[nH]c3ncc(-c4ccc(Cl)cc4)cc23)cc1,5.52
9,COc1ccc(Oc2cnc(N)nc2N)c(C(C)C)c1,2.56
10,CN1CCN(CC(=O)Nc2ccc(-c3ccc(-c4nc5ccccc5[nH]4)cc3)cc2)CC1,5.45
11,NOCCCOc1ccc(Cl)cc1,-0
12,O=S(=O)(c1ccc(NC(S)=NN=Cc2ccccn2)cc1)N1CCCCC1,6.47
13,O=C(Nc1ccc([N+](=O)[O-])cc1Cl)c1cc(Br)cc(Cc2ccccc2)c1O,16.2
14,O=c1cc(NCCC2CC=CCN2Cc2ccc(Cl)c(Cl)c2)[nH]c2ccccc12 (stereo not given),3.91
15,Cc1cc(CNCCCCCCCNCc2ccc(Cl)cc2)ccc1O,3.7
16,FC(F)(F)c1cnc(Sc2nnc(-c3ccncc3)o2)c(Cl)c1,3.5
17,COc1ccc2ccccc2c1CON1C(=N)N=C(N)NC1(C)C,1.42
18,CC(=O)Nc1ccc(Cl)c(Cl)c1,-0
19,COc1cc(NC(=O)C(c2ccc(Cl)cc2)C(C)C)cc(OC)c1OC (stereo not given),6.06
20,O=c1cc(NCCCNC(CNCCc2ccccc2)c2cc(Br)cc(Br)c2)[nH]c2ccccc12 (stereo not given),5.84

row,Compound,IFI [%]
1,CC(C)[C@H](NC(=O)c1ccc(O)c(-c2cccc(C(F)(F)F)c2)c1)C(=O)NCCN1CCCCC1,0
2,CON(C)C(=O)[C@@H](CCCCNC(=O)OCc1ccccc1)NC(=O)OC(C)(C)C,1.5
3,COc1ccc(-c2ccc(NC(=O)c3ccc(F)cc3)cc2)cc1CNC(C)C,2.97
4,CCCCCC(C)C(C)c1cc(O)c2c(c1)OC(C)(C)CC2=Cc1ccncc1 (stereo not given),-0
5,CCOC(=O)C(NC(=O)c1ccc([N+](=O)[O-])o1)C(C)C (stereo not given),1.41
6,CCCCCCCCNCC(O)c1cc(-c2ccc(Cl)cc2)nc2cc(C)ccc12 (stereo not given),4.41
7,CC1CN(c2cnn(Cc3ccc(NC(=O)Nc4ccc(F)cc4[N+](=O)[O-])cc3)c(=O)c2Cl)CC(C)N1 (stereo not given),-0
8,O=C(Nc1cccc(C(F)(F)F)c1)c1cc([N+](=O)[O-])cc2cn[nH]c12,5.62
9,CCOC(=O)CCCc1cc(NC2CCN(C)CC2)nc(Nc2ccc(OC)cc2)n1,2.9
10,COc1cc(NC(=O)c2sc(-c3ccc(Cl)cc3)cc2NC(=O)c2cccc(N(C)C)c2)ccc1OCCN1CCCC1,6.52
11,O=S(=O)(NCCN1CCCC1)c1cccc(-c2ccccc2CNC2Cc3ccccc3C2)c1,8.04
12,Cc1ccc(C(C#N)c2ccc3c(C(F)(F)F)cc(C(F)(F)F)nc3n2)cc1 (stereo not given),2.78
13,O=C(/C=C/c1ccc(Cl)c(Cl)c1)NCC[C@@H]1C[C@H]1CCN1CCC(c2c[nH]c3ccccc23)CC1,12.3
14,CCC(CC)CN1C(=O)C(C)(c2ccccc2)N=C1N (stereo not given),1.9
15,CCCNC(=O)c1cncc(-c2ccc(CNC3Cc4ccccc4C3)cc2)c1,3.08
16,C=C(NC(=O)c1cc(C)cc(C)c1)C(=O)OC,4.85
17,Cc1cc(NCCC(=O)NCCOc2ccccc2)nc(Nc2ccccc2)n1,2.33
18,O=C1COC2(CN1CC1CCN(Cc3ccc(O)c(Cl)c3)C1)c1ccccc1-c1ccccc12 (stereo not given),4.03
19,COc1cc2nc(N3CCC(CNC(=O)c4cccc5cccnc45)CC3)nc(N)c2cc1OC,5.22
20,CC(O)C1CCCCN1C(=O)c1cccc(-c2cccc(-c3nc4ccccc4[nH]3)c2)c1 (stereo not given),1.94
